Reference: PubChem BioAssay AID2546 (National Center for Advancing Translational Sciences (NCATS), 2010)
Out of some 310,000 compounds screened, about 11,000 (3.5%) were called active. This list was built around the results that the source calls inconclusive (neither active nor inactive); the mix of calls is not that of the screen. Calls follow the shape of the dose curve; as a rule, active = well fitted inhibition curve with a large enough effect; inconclusive = small, poorly fitted or top-dose-only effect, or effect the other way; inactive = flat fitted curve, though single readings scatter. No potency is given beside an inconclusive call; the fits are too rough. More than one record can exist for a structure, and the calls need not agree.

Test: VP16 counterscreen qHTS for inhibitors of ROR gamma transcriptional activity;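 also: Gal4-VP16 expression switched on by copper sulfate through the metallothionein promoter; nearly all actives have a fitted effect of over 50% in size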
Conditions: Drosophila S2 Gal4-VP16 UAS-luciferase, luminescence, 20 h; activity, negative = inhibition: at 53.6 µM (top of the series)
% is scaled to controls: 0 for no effect and ±100 for the full control effect; potency is read from the fitted curve at half-maximal effect; tags tell the direction and shape of the fitted curve.

SMILES | Potency | activity, negative = inhibition
Cc1oc(-c2cc(F)ccc2F)nc1CN1CCN(c2ncnc3ccccc23)CC1 | inconclusive [inhibitor, single point] | 
COc1ccc(CNC(=O)/C(C)=C\C(=O)O)cc1 | active: 10 µM | 
COc1ccc(/C=N/NC(=O)c2ccccc2O)cc1Cn1nnc2ccccc21 | inconclusive [inhibitor, partial curve, poor fit] | 
O=c1c2ccc(Cl)cc2[nH]c(=S)n1CCCN1CCOCC1 | inconclusive [inhibitor, single point] | 
O=C(C1=C[C@H](c2ccc3c(c2)OCO3)C[C@H](OCCCCO)O1)N1CCN(Cc2ccccc2)CC1 | inconclusive [inhibitor, single point] | 
COc1cccc(Cn2cccc(NC(=O)Nc3ccc(C#N)cc3)c2=O)c1 |  | inactive: -16.6%
CCOC(=O)N1CCN(C(=O)CN(C2CCCCC2)S(=O)(=O)c2ccc(C)cc2)CC1 |  | inactive: 4.33%
O=C(COC(=O)/C=C/c1nc2ccccc2s1)Nc1cccc(Cl)c1Cl |  | inactive: 5.53%
Cc1ccc(C)c(-n2cc(CN3CCNC(=O)CC3)c(-c3ccccc3)n2)c1 |  | inactive: -0.139%
COC(=O)CSc1nnc(-c2cccnc2)o1 | inconclusive [inhibitor, single point] | 
CCOc1cc(S(=O)(=O)NCCCN2CCOCC2)c(C)cc1C |  | inactive: 8.91%
CC(C)(C)CC(C)(C)NCC(O)COCCOc1ccc(Br)cc1 (configuration not stated) | active: 11.2 µM | 
O=C(Cc1cccc2ccccc12)N/N=C/C=C/c1cccc([N+](=O)[O-])c1 | inconclusive [inhibitor, single point] | 
CCOC(=O)N/N=C\c1ccc(-c2cc(Cl)ccc2Cl)o1 |  | inactive: -19.1%
Cc1ccccc1Cn1cnc2ccccc21 | inconclusive [inhibitor, single point] | 
O=C(O)c1cc(-c2cccnc2)nc2ccc(Br)cc12 |  | inactive: -3.84%
COCCn1c(=O)[nH]c2cc(C(=O)NCCCN3CCN(c4ccc(F)cc4)CC3)ccc2c1=O | inconclusive [inhibitor, single point] | 
CNC(=S)N/N=C/c1ccc(OCC(=O)Nc2c(C)cc(C)cc2C)c(OC)c1 | active: 12.6 µM | 
Cc1nn(C)c(C)c1-c1c(C#N)c(N)nc2c1CCCCCC2 |  | inactive: -3.92%
CCC(C)Nc1ncnc2c1cnn2Cc1ccc(Cl)cc1 (configuration not stated) | inconclusive [inhibitor, single point] | 
Cc1nc2ccccn2c1C(=O)NNC(=O)Nc1cccc(C(F)(F)F)c1 |  | inactive: 4.08%
CC(C)CC(=O)NC(=S)Nc1ccccc1C(F)(F)F | inconclusive [inhibitor, single point] | 
Cc1nc2ccc(S(=O)(=O)NCC(=O)N3CCN(c4ccccc4)CC3)cc2s1 |  | inactive: -5.63%
O=C(CCSc1nc(-c2ccco2)cc(C(F)(F)F)n1)N1CCN(c2ccccn2)CC1 |  | inactive: -2.08%
COc1ccc(CCN2CC(C(=O)NCCN3CCCC3=O)CCC2=O)cc1 (configuration not stated) |  | inactive: -8.15%
CC/C(O)=C1\C(=O)CC(C)(C)CC1=Nc1ccccc1C |  | inactive: 14.4%

SMILES | Potency | activity, negative = inhibition
CC1=NN(C(N)=S)C(=O)C1N=Nc1ccc(Cl)cc1Cl (configuration not stated) | active: 0.631 µM | 
Cc1ccc(-c2nnc(SCc3nc4ccccc4[nH]3)n2Cc2ccco2)cc1 | inconclusive [inhibitor, single point] | 
CN1CCSc2ccc(C(=O)Nc3cccc(F)c3)cc21 | inconclusive [activator, full curve, poor fit] | 
Cn1c(NCc2cc(Br)ccc2O)nc2ccccc21 | inconclusive [inhibitor, single point] | 
S=c1[nH]nc(C2CCCCC2)n1Cc1ccccc1 | active: 7.08 µM | 
Cc1nc(N2CCCCC2)c2c(C)c(C(=O)Nc3ccccc3C(F)(F)F)sc2n1 | inconclusive [inhibitor, single point] | 
O=C(Cn1cnc2c(nnn2Cc2ccc(F)cc2)c1=O)Nc1ccccc1 | inconclusive [inhibitor, full curve, poor fit] | 
O=C(N/N=C/c1ccc([N+](=O)[O-])o1)c1ccc2c(c1)OCO2 | active: 10 µM | 
CCOC(CNc1cc(C)nc2c(-c3ccccc3OC)c(C)nn12)OCC |  | inactive: 3.93%
O=C(NC1CCCCCCC1)c1cnccn1 |  | inactive: 13.5%
Cc1cc2nc(C3CCCN(C(=S)Nc4ccccc4)C3)[nH]c2cc1C (configuration not stated) | inconclusive [inhibitor, single point] | 
COc1ccccc1CO/N=C/c1cccn1-c1nccc(N(C)C)c1C#N |  | inactive: 11.7%
CCOc1ccc(-c2nc(-c3cccnc3)no2)cc1 | inconclusive [inhibitor, partial curve] | 
Cn1c(CC(=O)Nc2ccccc2)c(Sc2ccccc2)c2ccccc21 | inconclusive [activator, single point] | 
Cc1cc(=O)[nH]c(SCC(=O)/C=C2\N(C)c3ccccc3C2(C)C)n1 | inconclusive [inhibitor, single point] | 
Cc1ccc(S(=O)(=O)NCC(=O)N2CCN(c3ccccn3)CC2)cc1 | inconclusive [inhibitor, single point] | 
O=C(Nc1nc(-c2ccc(F)c(F)c2)cs1)c1cnccn1 |  | inactive: 11.5%
Cc1ccc(Cn2ccsc2=NC(=O)COC(=O)c2ccc(O)cc2O)cc1 | inconclusive [inhibitor, single point] | 
O=C(O)CCCCCNC(=O)CCn1nnc2ccccc2c1=O |  | inactive: -0.209%
COc1ccc(/C=N\NC(=O)c2ccccc2F)cc1COc1ccc(F)cc1F | active: 20 µM | 
O=C(Nc1ccc(Cl)cc1)Nc1nnc(/C=C/c2ccccc2)s1 | inconclusive [inhibitor, single point] | 
COc1ccc(NC2C=CS(=O)(=O)C2)c(OC)c1 (configuration not stated) |  | inactive: 5.79%
COCCN1C(=S)N[C@@H](c2cccc(F)c2)C(C(=O)OC)=C1C | active: 11.2 µM | 
N#Cc1ccccc1-c1ccc2ncnc(NC3CC3)c2c1 |  | inactive: -12.7%
CCCc1nc(C)c2c(=O)[nH]c(-c3cc(S(=O)(=O)N4CCN(CC)CC4)ccc3OCC)nn12 |  | inactive: 4.54%
CN(C)C(=O)N1CCN(C(=O)c2ccccc2Sc2ccccc2C#N)CC1 | inconclusive [inhibitor, single point] | 

SMILES | Potency | activity, negative = inhibition
CCOc1ccc(N(CCCCO)C(=S)NC(=O)c2ccc(C)c(Br)c2)cc1 | active: 5.62 µM | 
Cc1ccc(C(=O)N/N=C/c2ccc3c(c2)OCO3)o1 | inconclusive [activator, single point] | 
O=C(Nc1cnn(Cc2c(Cl)cccc2Cl)c1)C(c1ccccc1)c1ccccc1 |  | inactive: 4.93%
Fc1ccc(NC(=S)N2CCCCC2)cc1 | inconclusive [inhibitor, single point] | 
O=C(Nc1ccc(CN2CCOCC2)cc1)c1cc2ccccc2o1 | inconclusive [inhibitor, single point] | 
O=C(/C=C/c1ccccc1)NC(NC(=S)Nc1ccc(Cl)cc1)C(Cl)(Cl)Cl (configuration not stated) | active: 10 µM | 
Cc1cccc(OCCCCCn2ccnc2)c1C | inconclusive [inhibitor, single point] | 
Cn1nc(-c2ccc(Cl)cc2)c2cc(C(=O)NC3CC3)sc21 | active: 12.6 µM | 
Nc1ccccc1SC(C[N+](=O)[O-])c1ccccc1 (configuration not stated) | inconclusive [inhibitor, single point] | 
CCC(C)C(=O)N1CCCC(c2nc(-c3cccs3)no2)C1 (configuration not stated) | inconclusive [inhibitor, single point] | 
Cn1c(/C=C/c2ccccc2)nc2ccccc21 | active: 7.08 µM | 
O=[N+]([O-])c1ccc(F)cc1OCc1nc(-c2cccs2)no1 | inconclusive [activator, single point] | 
CCOC(=O)/C(=N\Nc1ccc(OC)cc1)c1csc(Nc2ccccc2)n1 | inconclusive [inhibitor, single point] | 
CC(C)(C)c1ccc2c(c1)OC(C(=O)N/N=C\c1ccncc1)CO2 (configuration not stated) | inconclusive [inhibitor, single point] | 
Cc1ccc(CNC(=O)/C(C#N)=C\c2ccc(N(C)C)cc2)cc1 | inconclusive [inhibitor, single point] | 
CCOC(=O)c1cnc2c(N=Nc3ccccc3)c(N)nn2c1N | inconclusive [inhibitor, single point] | 
CCN(CC(=O)Nc1ccc(Cl)c(C(F)(F)F)c1)CC(=O)NC1CCS(=O)(=O)C1 (configuration not stated) | inconclusive [inhibitor, single point] | 
CCCC(=O)Nc1nnc(-c2ccc(Cl)s2)o1 | inconclusive [inhibitor, single point] | 
Cc1ccc(NC(=S)NC(=O)c2sc3ccccc3c2Cl)c(C(=O)O)c1 | inconclusive [inhibitor, partial curve] | 
COc1ccc(C(C)=O)cc1Cn1nc(C)c([N+](=O)[O-])c1C |  | inactive: -5.35%
CCOC(=O)c1[nH]nc(N)c1NC(=O)c1ccc(Cl)cc1Cl | inconclusive [inhibitor, single point] | 
CCC(CC)c1nnc(NC(=O)c2ccc([N+](=O)[O-])cc2)s1 | inconclusive [inhibitor, partial curve] | 
CNC(=S)NCCC(c1ccccc1)c1ccccc1 | inconclusive [inhibitor, single point] | 
COc1cc(OC)c(-c2nnc(-c3ccc(OC)c(OC)c3OC)o2)cc1OC |  | inactive: -12.8%
CCOc1cc(NC(=S)NCC2CCCO2)c(OCC)cc1NC(=O)c1ccc(F)cc1 (configuration not stated) | inconclusive [inhibitor, full curve] | 
